Data reported in article PMC6919601, “Identification of Plasmodium dipeptidyl aminopeptidase allosteric inhibitors by high throughput screening” (PLoS ONE, 2019).
The campaign covered roughly 110,000 compounds. About 230 (0.21%) showed an effect of 50% or more. The list shows a part of the results.

biological target: DPAP1 (Plasmodium falciparum, UniProt Q8IIJ9); assay: primary screen, percent inhibition; read by cleavage of a fluorogenic dipeptide substrate; higher = more effect of the substance; set-up: species or system P. falciparum D10 trophozoite lysates; single well
Sequence (Q8IIJ9 whole entry, looked up): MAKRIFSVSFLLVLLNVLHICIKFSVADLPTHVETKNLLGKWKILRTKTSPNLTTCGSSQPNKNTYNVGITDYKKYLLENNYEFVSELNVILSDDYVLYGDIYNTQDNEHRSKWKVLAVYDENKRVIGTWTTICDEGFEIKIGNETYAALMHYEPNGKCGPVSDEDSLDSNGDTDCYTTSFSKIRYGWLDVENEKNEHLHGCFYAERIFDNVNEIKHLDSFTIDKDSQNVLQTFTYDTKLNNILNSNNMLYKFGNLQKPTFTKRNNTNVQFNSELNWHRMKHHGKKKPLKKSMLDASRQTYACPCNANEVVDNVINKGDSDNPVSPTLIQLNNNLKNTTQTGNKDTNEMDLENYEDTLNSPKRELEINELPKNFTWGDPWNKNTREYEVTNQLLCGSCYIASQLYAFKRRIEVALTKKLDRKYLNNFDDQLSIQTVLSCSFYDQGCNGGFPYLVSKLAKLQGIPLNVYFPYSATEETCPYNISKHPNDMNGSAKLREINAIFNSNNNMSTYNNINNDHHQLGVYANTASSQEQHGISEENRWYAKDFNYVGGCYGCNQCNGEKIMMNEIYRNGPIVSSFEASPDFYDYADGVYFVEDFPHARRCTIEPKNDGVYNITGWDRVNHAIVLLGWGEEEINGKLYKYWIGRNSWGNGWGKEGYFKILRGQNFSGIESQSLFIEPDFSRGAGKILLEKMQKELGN
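Also: 30 min substrate incubation versus DMSO and 10 µM JCP410 controls.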

SMILES	% Inhibition @ 10 uM [%]
CC[C@H](NC(=O)[C@H](CC1CCCCC1)NC(=O)OCc1ccccc1)C(=O)CS(=O)(=O)c1ccccc1	4.45
Cn1cc(CC(=O)NC2CCCCCC2)c2ccccc21	-6.91
CC(=O)Nc1c(-c2ccccc2)nc2c(C)cccn12	1.43
CCCOc1ccc(N2C(=O)CC(N3CCC(C)CC3)C2=O)cc1 (stereo not shown)	4.08
Cc1nnc2c3c4c(sc3nc(C)n12)CCC4	-2.07
CCOC(=O)c1cnn(C(C)(C)C)c1C1CCN(C(=O)OC(C)(C)C)CC1	-2.83
C=CCOc1cccc(CNCc2cccnc2)c1	-5.32
Cn1c(=O)[nH]c(=O)c2c1nc(NCc1ccccc1)n2CC(O)COc1ccc(Cl)cc1 (stereo not shown)	-2.74
CC(C(=O)N1CCN(CCO)CC1)(c1ccccc1)c1ccccc1	-0.519
CC1(C)CC(=O)N(CC(=O)O)c2ccccc2S1	3
Oc1cccc(/C=C/c2cc(C(F)(F)F)nc(O)n2)c1	-1.32
Cc1ccnc2nc(NC(=O)COc3ccc(Cl)cc3)nn12	5.01
O=C(Nc1ccc(-c2cn3ccsc3n2)cc1)c1cccs1	1.37
O=C(O)C1C2C=CC(O2)C1C(=O)NCc1ccccn1 (stereo not shown)	-5.46
Cc1cc(C)n(CCc2nc3c4ccccc4nc(N4CCN(Cc5ccccc5)CC4)n3n2)n1	2.6
FC(F)Oc1ccccc1C1C=C(c2ccc(Br)s2)Nc2nnnn21 (stereo not shown)	3.45
Cc1ccc(C)c(NC(=O)C(C)Oc2ccccc2)c1 (stereo not shown)	-4.13
O=C(OCC1OC2C(Oc3nc(=O)ccn32)C1O)c1ccccc1 (stereo not shown)	-5.28
O=C(O)c1ccc(NC(=O)C2C3CCC(C3)C2C(=O)O)cc1 (stereo not shown)	2.23
OCC1OC(Nc2ccccc2NC2OC(CO)C(O)C(O)C2O)C(O)C(O)C1O (stereo not shown)	-5.36
O=C1NC(=O)C(=Cc2c[nH]c3ccc(Br)cc23)C(=O)N1	-3.14
Cc1ccccc1N1CCN(Cc2ccc(Cl)c([N+](=O)[O-])c2)CC1	-4.61
NS(=O)(=O)c1ccc(CCNC(=O)CCc2ccccc2)cc1	-11.7
O=S(=O)(Cc1ccccc1)c1ccc2ccccc2c1	-6.11
CC(C)N(Cc1ccccc1)C(=O)C1=CCN(S(=O)(=O)c2ccccc2)CC1	3.4

SMILES	% Inhibition @ 10 uM [%]
CC1=CC(C)(C)Nc2ccc(OC(=O)CCC3CCCCC3)cc21	4.26
NC(=O)C1CCN(Cc2nc3ccccc3c(=O)n2-c2ccc(F)cc2)CC1	-3.33
CCOC(=O)N1CCN(S(=O)(=O)c2cccc3nonc23)CC1	2.84
CN1C(=O)C(=Cc2ccc(OCc3c(F)cccc3Cl)cc2)C(=O)N(C)C1=O	10.5
CCOC(=O)c1nc(N)sc1C(=O)OCC	-2.44
Cc1ccc2c(cnn2C(=O)CCC(=O)N2CCCCC2)c1	3.84
COC(=O)c1ccccc1NC(=O)c1cccc(C)c1	-1.22
CCCCc1oc2c(c(=O)c1CC)C(=O)CC(C)(C)C2	0.726
CCOc1ccc(C(C)NC(=O)c2ccco2)cc1OCC (stereo not shown)	-3.49
NC(=O)c1ccc(-n2nnnc2Oc2ccc3ccc(=O)oc3c2)cc1	-2.63
CCCSc1ncc(Cl)c(C(=O)Nc2sc3c(c2C(=O)NCc2ccco2)CCC3)n1	4.47
O=C(CN(c1ccccc1Cl)S(=O)(=O)c1ccccc1)NC1CCCC1	1.57
CCc1ccc(OCCCOc2ccc(/C=C3/C(=N)N4C=CSC4=NC3=O)cc2OC)cc1	3.47
COc1cc(C2C(C#N)=C(N)Oc3[nH]nc(-c4ccc(Br)cc4)c32)cc(OC)c1O (stereo not shown)	-1.12
OC1CCN(CC2CC=CCC2)CC1 (stereo not shown)	-0.446
CCCCn1nnc2c(=O)oc3ccc([N+](=O)[O-])cc3c21	5.55
CCN(CC)c1ccc(C2C3=C(O)CC(C)(C)CC3=NC(C)=C2C(=O)Nc2ccccn2)cc1 (stereo not shown)	-6.34
CCOc1ccccc1N(CC(N)=O)S(=O)(=O)c1ccc(C)cc1	2.45
COCCNC(=O)/C(C#N)=C/c1c(Oc2ccc(Cl)c(C)c2)nc2c(C)cccn2c1=O	-3.23
CCOC(=O)N1CCC(NS(=O)(=O)c2csc(C(N)=O)c2)CC1	-11.6
CN1CCN(Cc2nc3c(c(=O)n(C)c(=O)n3C)n2Cc2cccc3ccccc23)CC1	-0.499
CCOC(=O)[C@H]1O[C@@H]1C(=O)NNC(=O)[C@H](Cc1cc(I)c(O)c(I)c1)NC(=O)c1ccc(Br)cc1	-8.26
Cc1nc2c(c(C)nn2C(C)(C)C)c(C)c1CCC(=O)NC1CCN(Cc2ccccc2)CC1	-4.24
CCCS(=O)(=O)N1CCC(C(=O)NCCN(CC(C)C)CC(C)C)CC1	-1.79
O=C1OC(/C=C/c2ccc(Cl)cc2Cl)=NC/1=C\c1ccco1	1.11

SMILES	% Inhibition @ 10 uM [%]
Cc1cc(-c2ccc(C)c(S(=O)(=O)NCC3CCN(Cc4ccco4)CC3)c2)on1	1.56
CSC1=NSC2=NC(=O)/C(=C\c3ccc(Br)o3)C(=N)N12	-3.51
Cc1cc(C)n2nc(NC(=O)C(C)Oc3ccccc3)nc2n1 (stereo not shown)	5.2
OC(COc1ccc2ccccc2c1)CN1CCOCC1 (stereo not shown)	-3.85
CCOC(=O)C1=C(C)OC(N)=C(C#N)C1c1ccc(F)c(F)c1 (stereo not shown)	-6.18
O=C(c1ccccc1)c1nc2ccccc2nc1O	0.726
O=C(Nc1cccc(Cl)c1)c1ccc(Cl)c(S(=O)(=O)N2CCOCC2)c1	14.3
CCOCCCNC(=O)C(NC(=O)c1ccc(O)nc1)c1ccccc1 (stereo not shown)	2.84
COc1ccc(S(=O)(=O)Nc2nc3c(C)cccc3s2)cc1	-5.54
CCCc1[nH]nc2c1C(c1ccccc1C(F)(F)F)C(C#N)=C(N)O2 (stereo not shown)	-0.661
Cn1c(Oc2ccc(Cl)c3cccnc23)nc2c1c(=O)n(Cc1ccc(F)cc1)c(=O)n2C	-7.08
N#CCc1cc2ccc3cccnc3c2[nH]1	1.49
COc1ccc(N2CCN(C(=O)NC3CCCCC3)CC2)cc1	1.96
COCCNC(=O)c1c(NC(=O)c2cc(=O)c3ccc(C)c(C)c3o2)sc2c1CCCC2	-3.24
CC(C)CNC(=O)c1ccccc1NC(=O)c1ccc(CN2CCOCC2)cc1	-4.71
CCOc1ccc(OCC)c(S(=O)(=O)N2CCOCC2)c1	-1.2
CCc1nnc(SCc2ccccc2)c2cc3occc3n12	3.35
COc1ccc(-c2nc3n(n2)C(=O)CCS3)cc1	6.97
COC(=O)Nc1ccc(S(=O)(=O)N2CCCCC2)cc1	2.51
O=C(CCc1nc(CN2CCN(S(=O)(=O)c3ccc(F)cc3)CC2)no1)N1CCCC1	9.5
Cc1ccc(S(=O)(=O)NCC2(C)CC(NS(=O)(=O)c3ccc(C)cc3)CC(C)(C)C2)cc1 (stereo not shown)	2.09
CSc1ccc2c(c1)C(=O)Cc1ccccc1S2	1.4
CSc1ccc(CN2CCCN(C)CC2)cc1	6.18
CCOc1ccc(C(=O)NC2CCCCCC2)cc1S(=O)(=O)N1CCCCCC1	10.6
CCN(CC)S(=O)(=O)c1cc(C(=O)Nc2ccccn2)ccc1Br	1.13

SMILES	% Inhibition @ 10 uM [%]
CCC(Oc1ccccc1)C(=O)N1CCN(c2ccc(Cl)cc2)CC1 (stereo not shown)	1.67
CC(C)Cn1cc(NC(=O)NCc2cccnc2)c2ccccc2c1=O	0.358
OCc1ccc(Sc2ccc(Cl)cc2)cc1	3.65
CCN1CCC(N2CCOCC2)CC1	-0.233
O=C(c1cccs1)n1cc(C(=O)C(F)(F)F)c2ccccc21	-11.2
Cc1ccc(CNC(=O)CCCn2c3ccccc3c3cnnc(O)c32)cc1	3
CCS(=O)(=O)c1nc(S(=O)(=O)c2ccc(C)cc2)c(NCc2cccnc2)s1	-5.89
Clc1ccc(-c2csc3ncnc(N4CCCCCC4)c23)cc1	0.408
Cc1nn(CCCC(=O)NCCc2ccccc2)c(=O)c2c1sc1ccccc12	-5.27
Cc1[nH]c2ccccc2c1Cc1nnc(S)n1Cc1ccccc1	-1.11
CC1=C(C(=O)NCCC(C)C)C2(CCC(C)CC2)OC1=O (stereo not shown)	-1.89
CC(C)CCn1c(=O)c2cccnc2n(CC(N)=O)c1=O	1.72
COC(=O)C(=C/C=C/c1ccccc1)C(=O)OC	0.0719
Cc1nn(-c2ccccc2)c(O)c1/C=N/CCO	25.4
CC1=C(C(=O)N(C)C)C(c2cccc(Cl)c2)n2c(nc3ccccc32)N1 (stereo not shown)	-9.03
O=C1c2ccccc2C(=O)C1(c1ccccc1)N1CCCCC1	2.22
Cc1ccc(S(=O)(=O)N2CCN(S(=O)(=O)N3CCOCC3)CC2)c(C)c1	-5.67
CCN(CC)CCNC(=O)C(NC(=O)C1CCC(C)CC1)C(C)C (stereo not shown)	0.505
O=C(O)C1C2C=CC(C2)C1C(=O)NCCC(c1ccccc1)c1ccccc1 (stereo not shown)	2.48
CC(=O)N1CCc2c(sc3c2c(=O)n(Cc2ccccc2)c(=O)n3Cc2ccc(F)cc2)C1	-3.44
CCC(=O)N1N=C2c3ccc(OC)cc3CCC2C1c1ccccc1 (stereo not shown)	10.6
Cc1nn(C(C)C(=O)N2CCN(Cc3ccccc3)CC2)c(=O)c2nn(-c3ccccc3)c(C)c12 (stereo not shown)	-5.74
O=C1N/C(=C/c2ccc3c(c2)OCCO3)C(=O)N1Cc1ccccc1F	5.24
COc1ccc(C2NC(=O)N(C)C(C)=C2C(=O)Nc2ccccc2C)cc1 (stereo not shown)	0.177
CC(C)Cn1cc(C(=O)NC2CCN(Cc3ccccc3)CC2)c2c3ccccc3n(C)c2c1=O	-1.84
